# Measurements published in the supplement of paper PMC10338343.
# ± gives the standard deviation. The entries are a selection whose mix differs from that of the whole data set.
# Test system: MIWI (PIWIL1) piRISC loaded with piRNA #1 (30 nt)
# Experiment: pre-steady-state target cleavage rate (min^-1); MIWI and MILI are mouse PIWI proteins and EfPiwi is from a freshwater sponge; tags in brackets are library labels; higher = faster piRNA-guided slicing of the target
# Conditions: guide: piRNA #1 5'p-UGAGGUAGUAGGUUGUAUAGUAUCCAGAGG; auxiliary factor: 500 nM mouse GTSF1
# Summary of the method: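 Cleave-'n-Seq: a transcribed, DNA-blocked target RNA library (0.1 nM) was mixed with 1 nM active affinity-purified piRISC carrying one synthetic guide, with or without 500 nM GTSF1 partner protein, in HEPES–potassium acetate buffer at 33 °C for 0–8 or 0–960 min. Uncleaved targets were sequenced and normalised to depth and to weakly complementary targets. Three trials were pooled, and k3 was capped at 0.0001 min^-1. The pre-steady-state cleavage rate came from a burst-and-steady-state fit.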
row,Sequence,pre-steady-state target cleavage rate
1,GGAGACCAUACUAUACAUGCUACUACCUCA,0.427 ± 0.037
2,GGAGACCUAUCUAUACAAGCUACUACCUGA,0.27 ± 0.027
3,GCUCUGGAUACAUACAACCUACUACCUCA,1.28 ± 0.094
4,GGAGAGGUUUCUAUACAACCUACUACCUCA,1.32 ± 0.076
5,GGACUGGAUACUAUACUACCUACUACCACA,0.945 ± 0.11
6,CCUCAGGAUACUAUACAACCUUCUACCUCA,0.767 ± 0.04
7,GGAGACCUAUGAUAUCUACCUACUACGUCA,< 0.0001
8,GGACUGGAUACUAUACAACCUACUACGUGA,0.0214 ± 0.0061
9,GGACUGGAUACUAUUCAACGUACUACCUCA,0.812 ± 0.069
10,GGUCUGGAUAUUAUACAACCUACUACCUCA,1.98 ± 0.12
11,GGAGACCUAUCUAAUACAACCUACUACCUCA,0.0462 ± 0.0099
12,GGAGUGGUUACUAUACAACCUUCUACCUCA,0.629 ± 0.029
13,CCUCUGGAUACUAUACAGACCUACUACCUCA,0.0114 ± 0.0052
14,GGAGACGAUACUUUACAACCUACUUCCUCA,0.224 ± 0.063
15,GGAGACCUUAGUAUUCAACCUACUACCUCA,0.0304 ± 0.0054
16,GGAGACGAUACUGUACAACCUACUACCUCA,0.895 ± 0.054
17,CCUCUGGAUACAAUACAACCUACUACCUCA,1.92 ± 0.12
18,GGAGAGGAUACUAUACCAACCUACUACCUCA,0.0425 ± 0.012
19,GGACUGGAUACUAUACAACCUAUCUACCUCA,0.313 ± 0.035
20,GGAGACCUAUGAUAUGUACCUACAUGGAGA [g8:g13:cont:t1A],< 0.0001

row,Sequence,pre-steady-state target cleavage rate
1,GGAGACCUAUGUAUACACCCUACUACCUCA,0.102 ± 0.017
2,GGAGACCUUUCUAUACAAGCUACUACCUCA,0.357 ± 0.028
3,GGACUGGAUACUAUUCAACCUACUACGUCA,0.389 ± 0.054
4,GGUCUGGAUACUAUACAACCUACUACCAGA,0.084 ± 0.017
5,GGAGAGGAUACUAUAGCAACCUACUACCUCA,0.61 ± 0.07
6,GCUCUGGAUACUAUACAACCAACUUCCUCA,0.04 ± 0.007
7,GGAGAGGAUACUAUACAACCUACUCACCUCA,0.894 ± 0.07
8,GGAGACGAAACUAAACAACCUACUACCUCA,0.626 ± 0.069
9,CCUCUGGAUACUAAUACAACCUACUACCUCA,1.83 ± 0.11
10,GGAGAGGAUACUAUACGACCUACUACCUCA,1.28 ± 0.079
11,GGAGACGAAACUAUACAACCUACAACCUCA,0.572 ± 0.064
12,GGAGUGGAUACUAUACAACCUACUAACUCA,0.0789 ± 0.011
13,GGAGACGAUACUAUACAACGUAGUACCUCA,0.141 ± 0.026
14,CCUCUGGAUACAAUUCAACCUACUACCUCA,1.69 ± 0.1
15,GGAGACCUAUGAUUACAACCUACUAGGACA,< 0.0001
16,GGAGAGGAUACUAUACAACCUACUGACCUCA,0.576 ± 0.034
17,GGAGACCUUACUAUACAACCAACUACGUCA,0.0518 ± 0.0063
18,GGAGAGGAUUCUAUACAACCUACUACGUCA,0.476 ± 0.046
19,GGAGAGGAUACUAUACAACCUACUACGAGA,0.0895 ± 0.04
20,GGAGACCUUACUUUACAUCCUACUACCUCA,0.518 ± 0.048
